The shares of active, inactive and inconclusive entries below differ from those in the screen. For part of these data: Potencies of inconclusive entries are doubtful fits and often do not repeat. Calls of active or inactive are those of the source. Unless noted, calls follow the shape of the dose curve; as a rule, active = well fitted curve in the direction sought with a large enough effect; inconclusive = small, poorly fitted or top-dose-only effect, or another doubt; inactive = no such curve, though single readings can be large; an effect the other way counts as inactive or inconclusive.
Tests used:
[1] = Validation of Assay for Modulators of Lamin A Splicing (AID 1459; active = well fitted curve in the direction sought with a large enough effect in the signal ratio; inconclusive = small, poorly fitted or top-dose-only effect, or effect the other way, or a change in a side signal; inactive = no such curve, though single readings can be large or run the other way; the % refers to the signal ratio; also: potency is read from the fitted curve at half-maximal effect;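 as to ratio change, both ways: cells exposed to compound for two days before reading; 0% is about no effect; ratio rise marks activators and ratio drop marks inhibitors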); settings: Lamin A splicing dual RFP/GFP fluorescence reporter; Potency: ratio unless noted; ratio change, both ways: at 9.22 µM unless noted
Summary of the method: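 HeLa S3 lamin A-EGFP/DsRed2 stable clone, 600 cells/well, Opti-MEM 2% FBS; compounds by pin tool; 48 hrs, 37 °C/5% CO2; Acumen 488 nm scan, objects 10-100 um; GFP/RFP intensity ratio.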

[2] = qHTS Assay for Lipid Storage Modulators (AID 1519; calls by dose curve; also: % is scaled to controls: 0 for no effect and ±100 for the full control effect); settings: Drosophila S3 cells, BODIPY lipid droplet/cell ratio, laser cytometry, cells loaded with oleic acid; activity change, negative = inhibition: at 57.5 µM (top of the series) unless noted
Summary of the method: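 Cells seeded at 5,000 per well were treated with compounds over a concentration series and loaded with oleic acid (400 uM, as added). Lipid droplet fluorescence (488 nm excitation, 500-530 nm channel) was read by laser-scanning cytometry and normalized to 20 uM Triacsin C.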

[3] = target: DNA repair nuclease/redox regulator APEX1 (Homo sapiens) (UniProt P27695); test: qHTS Validation Assay for Inhibitors of the Human Apurinic/apyrimidinic Endonuclease 1 (APE1) (AID 1705; also: potency is read from the fitted curve at half-maximal effect)
Chain of UniProt P27695 (P27695 whole entry, looked up): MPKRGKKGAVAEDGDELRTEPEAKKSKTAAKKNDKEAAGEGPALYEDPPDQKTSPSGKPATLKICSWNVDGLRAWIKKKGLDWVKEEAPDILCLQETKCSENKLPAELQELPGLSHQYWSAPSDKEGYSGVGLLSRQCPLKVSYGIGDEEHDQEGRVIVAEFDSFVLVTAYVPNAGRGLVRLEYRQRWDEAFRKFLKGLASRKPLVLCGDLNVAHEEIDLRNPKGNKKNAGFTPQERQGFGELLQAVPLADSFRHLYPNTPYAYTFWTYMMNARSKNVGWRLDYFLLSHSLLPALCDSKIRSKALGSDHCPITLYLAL
Summary of the method: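 qHTS, 1536-well. APE1 + cpd 15 min RT → 50 nM TAMRA/BHQ-2 THF-abasic dsDNA substrate → kinetic fluorescence, 3 reads/60 s; delta(read3−read1) = reaction progress. No-enzyme buffer = negative control.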

[4] = target: Endonuclease 4 (Escherichia coli (strain K12)) (UniProt P0A6C1); test: Counterscreen for APE1 Inhibitors: qHTS Validation Assay for Inhibitors of Endonuclease IV (AID 1708); also: potency is read from the fitted curve at half-maximal effect
Summary of the method: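 Conditions: 2 nM enzyme, 50 nM TAMRA/BHQ-2 substrate, pH 7.5 Tris buffer with 2 mM MgCl2, RT. Compound preincubation 15 min; readout three fluorescence reads 60 s apart, third-minus-first.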

[5] = qHTS for differential inhibitors of proliferation of Plasmodium falciparum line 7G8 (AID 1815);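 also: parasite growth measured after three days of incubation; plate controls were vehicle wells for no effect and reference inhibitor wells for full effect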
[6] = qHTS for differential inhibitors of proliferation of Plasmodium falciparum line D10 (AID 1877);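 also: parasites grown with compound for 72 h before DNA staining; plate controls were vehicle wells for no effect and reference inhibitor wells for full effect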
[7] = qHTS for differential inhibitors of proliferation of Plasmodium falciparum line W2 (AID 1883); settings: Potency: Plasmodium falciparum W2 proliferation inhibition;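 also: parasites grown with compound for 72 h before lysis and staining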; also: potency is read from the fitted curve at half-maximal effect;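 as to activity change, negative = inhibition: 0% = vehicle wells and -100% = control inhibitor wells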
[8] = target: RecQ-like DNA helicase BLM (Homo sapiens) (UniProt P54132); test: qHTS Validation Assay for Inhibitors of Bloom's syndrome helicase (BLM) (AID 2364);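 also: plate controls were DMSO vehicle for no effect and enzyme-free control for full effect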
Chain of UniProt P54132 (P54132 whole entry, looked up): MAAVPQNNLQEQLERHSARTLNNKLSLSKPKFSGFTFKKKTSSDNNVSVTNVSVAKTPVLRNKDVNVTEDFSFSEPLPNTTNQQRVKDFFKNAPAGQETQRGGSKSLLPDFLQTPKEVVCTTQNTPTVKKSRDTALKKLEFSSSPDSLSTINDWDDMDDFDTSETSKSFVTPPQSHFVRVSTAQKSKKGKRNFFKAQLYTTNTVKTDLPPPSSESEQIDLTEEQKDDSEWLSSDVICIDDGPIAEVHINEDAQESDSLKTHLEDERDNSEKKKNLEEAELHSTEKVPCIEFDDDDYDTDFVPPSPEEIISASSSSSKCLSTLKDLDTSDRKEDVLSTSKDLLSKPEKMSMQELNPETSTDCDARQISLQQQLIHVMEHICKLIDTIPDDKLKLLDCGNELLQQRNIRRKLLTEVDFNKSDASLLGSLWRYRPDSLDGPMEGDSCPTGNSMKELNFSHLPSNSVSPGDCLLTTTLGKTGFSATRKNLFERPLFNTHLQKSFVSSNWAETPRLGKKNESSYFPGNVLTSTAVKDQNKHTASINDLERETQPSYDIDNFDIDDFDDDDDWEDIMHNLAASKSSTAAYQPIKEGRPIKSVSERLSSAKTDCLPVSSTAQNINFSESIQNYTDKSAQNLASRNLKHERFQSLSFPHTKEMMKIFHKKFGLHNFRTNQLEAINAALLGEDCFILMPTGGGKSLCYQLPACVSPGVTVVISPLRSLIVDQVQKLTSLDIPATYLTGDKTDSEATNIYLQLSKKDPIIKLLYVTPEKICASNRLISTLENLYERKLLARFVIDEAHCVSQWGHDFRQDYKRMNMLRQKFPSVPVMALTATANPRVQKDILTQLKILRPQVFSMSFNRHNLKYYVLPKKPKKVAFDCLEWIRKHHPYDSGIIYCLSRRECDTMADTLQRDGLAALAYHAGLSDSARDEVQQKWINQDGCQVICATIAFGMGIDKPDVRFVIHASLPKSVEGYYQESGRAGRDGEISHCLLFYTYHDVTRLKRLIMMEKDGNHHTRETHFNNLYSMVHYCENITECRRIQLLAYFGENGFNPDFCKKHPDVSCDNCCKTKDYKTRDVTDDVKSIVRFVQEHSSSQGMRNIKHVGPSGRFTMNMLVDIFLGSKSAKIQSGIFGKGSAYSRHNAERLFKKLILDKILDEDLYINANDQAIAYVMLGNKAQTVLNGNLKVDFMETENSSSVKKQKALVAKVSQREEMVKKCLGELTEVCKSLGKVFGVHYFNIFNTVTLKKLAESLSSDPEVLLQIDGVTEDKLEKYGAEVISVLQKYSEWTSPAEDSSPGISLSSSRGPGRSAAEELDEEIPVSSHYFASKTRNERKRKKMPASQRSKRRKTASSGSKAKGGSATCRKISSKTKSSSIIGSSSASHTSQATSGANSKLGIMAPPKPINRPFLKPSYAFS
Summary of the method: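 50 nM BLM preincubated 15 min at room temperature with compound in pH 8.0 Tris buffer containing 2.5 ug/ml poly(dI-dC); started with 200 nM TAMRA/BHQ-2 forked duplex and 2 mM ATP (final). Unwinding read as TAMRA fluorescence increase, two reads 2 h apart.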

[9] = target: DNA repair nuclease/redox regulator APEX1 (Homo sapiens) (UniProt P27695); test: Confirmation qHTS Assay for Inhibitors of the Human Apurinic/apyrimidinic Endonuclease 1 (APE1) (AID 2572);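 also: fluorescence gain from purified APE1 cutting a TAMRA/BHQ-2 THF abasic duplex; % is scaled to controls: 0 for no effect and ±100 for the full control effect; nearly all actives have a fitted effect of over 30% in size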
Summary of the method: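 Cleavage of a tetrahydrofuran abasic site in a 50 nM (final) TAMRA/BHQ-2 duplex was tracked by rising fluorescence, measured in kinetic mode; reaction progress computed from the first-to-third read difference.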

[10] = Quantitative high throughput screen for delayed death inhibitors of the malarial parasite plastid, 96 hour incubation (AID 488745); also: % is scaled to controls: 0 for no effect and ±100 for the full control effect; nearly all actives have a fitted effect of over 70% in size
Summary of the method: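 Decreased firefly luciferase luminescence indicates inhibited growth of reporter-integrated P. falciparum after two generations (96 h, 37 C, 5% CO2). Infected erythrocytes at 0.1% parasitemia, 2% hematocrit, in Albumax-supplemented RPMI 1640.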

[11] = target: Calcium and integrin-binding protein 1 (Homo sapiens) (UniProt Q99828); test: Confirmatory qHTS for Identification of Calcium Integrin Binding Protein 1 (CIB1) Competitor (AID 1508617); also: % is scaled to controls: 0 for no effect and ±100 for the full control effect; nearly all actives have a fitted effect of over 65% in size
Chain of UniProt Q99828 (Q99828 whole entry, looked up): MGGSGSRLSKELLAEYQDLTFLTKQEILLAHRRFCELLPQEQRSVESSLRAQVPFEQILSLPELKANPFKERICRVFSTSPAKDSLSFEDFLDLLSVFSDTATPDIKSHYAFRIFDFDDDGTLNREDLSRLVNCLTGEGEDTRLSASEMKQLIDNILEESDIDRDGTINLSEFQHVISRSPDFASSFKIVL
Summary of the method: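 Confirmatory qHTS measures displacement of a FITC-alphaIIb peptide (100 nM) from CIB1-GST (1 uM) by fluorescence polarization. Calcium-containing HEPES buffer, pH 7.4; two 15 min room-temperature incubations.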

[12] = target: Calcium and integrin-binding protein 1 (Homo sapiens) (UniProt Q99828); test: Primary qHTS for Identification of Calcium Integrin Binding Protein 1 (CIB1) Competitor (AID 1508620); also: potency is read from the fitted curve at half-maximal effect
Summary of the method: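 Fluorescence polarization competition: GST-tagged CIB1 (1 uM final) preincubated with compound 15 min at room temperature, then FITC-labelled alphaIIb peptide (100 nM final) added. After 15 min at room temperature, polarization read at Ex 480/Em 540.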

[13] = qHTS Assay for Identification of Small Molecule Antagonists for Thrombopoietin (TPO) Signaling Pathway (AID 918); settings: TPO-dependent cell signaling reporter, antagonist mode; activity change, negative = inhibition: at 38.5 µM (top of the series); also: nearly all actives have a fitted effect of over 60% in size
Summary of the method: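 Inhibition read as reduced luciferase luminescence after 24 h at 37 C in IL-3-deprived Ba/F3 cells carrying human TPO receptor and GPIIb-promoter reporter, stimulated with 26 pM TPO (final, its EC50) alongside compound.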

[14] = target: Muscarinic acetylcholine receptor M1 (Rattus norvegicus) (UniProt P08482); test: qHTS Assay for Antagonists of Acetylcholine Muscarinic M1 Receptor: Kinetic Measurement of Intracellular Calcium Response (AID 943); also: nearly all actives have a fitted effect of over 75% in size; also: potency is read from the fitted curve at half-maximal effect;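 as to activity change, negative = inhibition: Fluo-4 calcium signal as peak divided by basal fluorescence over 4 min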
Chain of UniProt P08482 (P08482 whole entry, looked up): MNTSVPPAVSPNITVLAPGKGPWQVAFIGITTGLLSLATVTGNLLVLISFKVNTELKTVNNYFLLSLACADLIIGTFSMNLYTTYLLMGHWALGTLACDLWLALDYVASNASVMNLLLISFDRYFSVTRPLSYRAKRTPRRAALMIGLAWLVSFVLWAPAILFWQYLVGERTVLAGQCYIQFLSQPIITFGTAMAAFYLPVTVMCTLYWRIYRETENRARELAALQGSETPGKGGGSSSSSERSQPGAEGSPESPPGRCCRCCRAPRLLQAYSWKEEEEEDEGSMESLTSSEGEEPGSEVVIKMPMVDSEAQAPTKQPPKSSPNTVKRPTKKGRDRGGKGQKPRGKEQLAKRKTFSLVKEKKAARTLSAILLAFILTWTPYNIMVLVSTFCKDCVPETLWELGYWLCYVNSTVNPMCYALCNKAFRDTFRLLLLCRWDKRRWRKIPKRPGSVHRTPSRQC
Summary of the method: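 Antagonism measured as reduction of carbachol-evoked (EC80, 100 nM final) calcium flux in rat M1-CHO cells after 10 min compound exposure. Fluo-4 signal read kinetically; ratio of maximal to basal fluorescence.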

[15] = target: Muscarinic acetylcholine receptor M1 (Rattus norvegicus) (UniProt P08482); test: qHTS Assay for Antagonists of Acetylcholine Muscarinic M1 Receptor: Measurement of IP-One Response (AID 944); also: nearly all actives have a fitted effect of over 75% in size
[16] = Counterscreen for APE1 Inhibitors: Fluorescent Dye Displacement Validation Assay (AID 1707);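 also: plate controls were ThO with dsDNA and no compound for no effect and ThO without dsDNA for full effect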
Summary of the method: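 Endpoint fluorescence read at 480 nm excitation / 540 nm emission; DNA-binding compounds lower signal by displacing 250 nM Thiazole Orange from 50 nM dsDNA containing a tetrahydrofuran abasic site, Tris-HCl pH7.5 buffer with NaCl and MgCl2.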

[17] = target: ATPase family AAA domain-containing protein 5 (Homo sapiens) (UniProt Q96QE3); test: Validation screen for small molecules that inhibit ELG1-dependent DNA repair in human embryonic kidney (HEK293T) cells expressing luciferase-tagged ELG1 (AID 493107); settings: HEK293T ELG1-luciferase level, luminescence, 5-fluorouridine co-treatment, 16 h; activity change, negative = decrease: at 46.1 µM (top of the series);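 also: % is scaled to controls: 0 for no effect and ±100 for the full control effect; inhibitors lower the ELG1-luciferase luminescence signal; nearly all actives have a fitted effect of over 70% in size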
Chain of UniProt Q96QE3 (Q96QE3 whole entry, looked up, the tested form may be a part): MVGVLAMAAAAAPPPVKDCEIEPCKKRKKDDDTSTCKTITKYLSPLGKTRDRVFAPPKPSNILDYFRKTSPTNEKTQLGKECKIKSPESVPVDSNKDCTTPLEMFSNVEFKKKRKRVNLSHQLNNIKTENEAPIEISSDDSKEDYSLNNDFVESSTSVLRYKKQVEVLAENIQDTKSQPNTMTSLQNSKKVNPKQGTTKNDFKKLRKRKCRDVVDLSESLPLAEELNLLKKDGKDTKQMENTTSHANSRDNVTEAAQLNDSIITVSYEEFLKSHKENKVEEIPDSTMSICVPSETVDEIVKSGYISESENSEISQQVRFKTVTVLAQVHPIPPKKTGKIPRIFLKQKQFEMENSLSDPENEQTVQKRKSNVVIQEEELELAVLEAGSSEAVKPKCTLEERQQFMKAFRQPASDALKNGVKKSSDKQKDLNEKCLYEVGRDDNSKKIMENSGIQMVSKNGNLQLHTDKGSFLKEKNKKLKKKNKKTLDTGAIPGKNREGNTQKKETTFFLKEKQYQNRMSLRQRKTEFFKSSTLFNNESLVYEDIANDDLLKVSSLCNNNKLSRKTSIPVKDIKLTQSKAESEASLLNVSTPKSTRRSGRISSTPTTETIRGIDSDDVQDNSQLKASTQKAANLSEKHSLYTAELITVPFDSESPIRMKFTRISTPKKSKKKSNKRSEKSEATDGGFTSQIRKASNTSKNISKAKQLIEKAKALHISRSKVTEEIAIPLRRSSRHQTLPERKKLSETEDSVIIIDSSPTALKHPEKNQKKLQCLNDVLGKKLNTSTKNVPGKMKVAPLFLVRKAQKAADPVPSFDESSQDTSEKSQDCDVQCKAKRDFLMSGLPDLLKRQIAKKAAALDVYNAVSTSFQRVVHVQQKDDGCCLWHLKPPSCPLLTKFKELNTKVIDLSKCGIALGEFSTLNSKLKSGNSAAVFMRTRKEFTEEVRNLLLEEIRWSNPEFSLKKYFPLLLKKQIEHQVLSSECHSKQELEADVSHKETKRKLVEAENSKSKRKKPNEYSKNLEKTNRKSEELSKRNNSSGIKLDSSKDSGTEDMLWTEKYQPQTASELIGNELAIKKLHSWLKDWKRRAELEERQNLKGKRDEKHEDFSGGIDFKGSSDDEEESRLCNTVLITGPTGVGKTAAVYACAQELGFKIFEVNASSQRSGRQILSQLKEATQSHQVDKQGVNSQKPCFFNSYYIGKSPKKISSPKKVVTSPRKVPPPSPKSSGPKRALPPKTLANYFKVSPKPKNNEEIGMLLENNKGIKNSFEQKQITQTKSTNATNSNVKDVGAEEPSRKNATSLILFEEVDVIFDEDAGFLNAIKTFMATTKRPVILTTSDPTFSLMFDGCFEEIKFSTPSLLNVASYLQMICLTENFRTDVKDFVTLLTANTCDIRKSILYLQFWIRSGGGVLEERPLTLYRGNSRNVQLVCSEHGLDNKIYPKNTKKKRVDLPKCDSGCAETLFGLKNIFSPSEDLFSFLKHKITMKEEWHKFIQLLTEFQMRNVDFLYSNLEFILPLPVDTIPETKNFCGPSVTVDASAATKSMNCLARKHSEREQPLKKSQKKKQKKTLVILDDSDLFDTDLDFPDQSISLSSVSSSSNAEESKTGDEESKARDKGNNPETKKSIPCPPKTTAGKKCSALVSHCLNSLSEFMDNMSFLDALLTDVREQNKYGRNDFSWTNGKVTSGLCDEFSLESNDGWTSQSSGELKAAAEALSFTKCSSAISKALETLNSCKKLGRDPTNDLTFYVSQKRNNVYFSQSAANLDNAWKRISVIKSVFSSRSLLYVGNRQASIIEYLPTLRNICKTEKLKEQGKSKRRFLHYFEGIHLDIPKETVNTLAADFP
Summary of the method: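 Luciferase read-out, ONE-Glo, 30 min at room temperature, follows 16 h co-exposure at 37 C of compound and the DNA-damaging agent 5-fluorouridine. Cells: HEK293T with ELG1-luciferase fusion, 2,000 per well, DMSO as vehicle.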

[18] = NFAT Signaling Pathway (AID 444; active = well fitted curve in either direction with a large enough effect, not every such curve was filed as active; inconclusive = small, poorly fitted or top-dose-only effect, or another doubt;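 also: carbachol stimulus at about its EC50 of 1 µM final; % is scaled to controls: 0 for no effect and ±100 for the full control effect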); settings: Jurkat NFAT-bla M1, carbachol, beta-lactamase ratio, 5 h; at 7.69 µM (top of the series) unless noted
Summary of the method: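 Jurkat cells with NFAT-driven β-lactamase reporter and co-expressed M1 receptor, stimulated with carbachol (final 1 uM, ~EC50), compound titration, 5 h at 37 °C. CCF4 loaded 1 h at RT; 460/530 nm ratio gave %activity and AC50.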

[19] = target: Cytochrome P450 3A4 (Homo sapiens) (UniProt P08684); test: qHTS Assay for Activators of Cytochrome P450 3A4 (AID 885); also: potency is read from the fitted curve at half-maximal effect; nearly all actives have a fitted effect of over 65% in size
Chain of UniProt P08684 (P08684 whole entry, looked up): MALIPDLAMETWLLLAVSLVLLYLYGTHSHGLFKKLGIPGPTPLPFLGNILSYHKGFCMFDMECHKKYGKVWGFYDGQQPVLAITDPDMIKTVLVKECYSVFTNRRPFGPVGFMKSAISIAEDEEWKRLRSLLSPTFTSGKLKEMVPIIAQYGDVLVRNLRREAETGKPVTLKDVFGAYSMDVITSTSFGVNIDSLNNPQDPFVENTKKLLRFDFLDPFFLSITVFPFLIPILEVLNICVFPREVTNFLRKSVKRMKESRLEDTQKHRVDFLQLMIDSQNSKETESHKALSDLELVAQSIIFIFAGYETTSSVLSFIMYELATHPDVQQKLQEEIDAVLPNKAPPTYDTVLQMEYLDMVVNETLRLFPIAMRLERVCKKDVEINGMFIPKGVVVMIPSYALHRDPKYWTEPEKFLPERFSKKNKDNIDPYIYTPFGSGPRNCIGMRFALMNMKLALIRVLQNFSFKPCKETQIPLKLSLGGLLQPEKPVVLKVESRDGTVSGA
Summary of the method: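 Activators are scored by enhanced luminescence from CYP3A4 conversion of luciferin-PPXE (25uM, equal to KM) to luciferin, after 60 min at RT with an NADPH-regenerating system.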

[20] = qHTS Assay for Identification of Small Molecule Antagonists for NFkB Signaling Pathway (AID 895; active = well fitted inhibition curve with a large enough effect in the signal ratio, with a control signal flat, not every such curve was filed as active; inconclusive = small, poorly fitted or top-dose-only effect, or effect the other way, or a change in a side signal; the % refers to the signal ratio; also: potency is read from the fitted curve at half-maximal effect); settings: NFkB beta-lactamase reporter cells, FRET ratio 460/530, stimulated with 10 pM TNF alpha; activity change, negative = inhibition: at 38.3 µM (top of the series)
Summary of the method: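 ME-180 NFkB-bla cells (beta-lactamase under NFkB response element), plated overnight, treated with compound then 10 pM TNF alpha (about EC50) for 5 hrs at 37 C. LiveBLAzer FRET read at 460/530 nm emission, 405 nm excitation.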

[21] = qHTS Assay for Identification of Small Molecule Agonists for Hypoxia Response Element Signaling Pathway (AID 914; active = well fitted activation curve with a large enough effect in the signal ratio, with a control signal flat, not every such curve was filed as active; inconclusive = small, poorly fitted or top-dose-only effect, or effect the other way, or a change in a side signal; the % refers to the signal ratio; also: top concentration of the series differs between compounds; % of control where 0% means no effect); settings: ME-180 (cervical carcinoma) HRE-bla reporter, beta-lactamase ratio, CoCl2, 17 h; activation: stronger effect = higher value
Summary of the method: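 In Opti-MEM containing 0.5% dialyzed FBS and 10 mM HEPES, ME-180 HRE-bla cells received a compound titration and EC50 CoCl2. They were incubated 17 hours, then CCF4-loaded 2.5 hours at room temperature before ratio reading.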
Tags tell the direction and shape of the fitted curve or compound fluorescence and quenching.

For `CO/N=C(\C(=O)N[C@@H]1C(=O)N2C(C(=O)O)=C(COC(C)=O)CS[C@H]12)c1csc(N)n1` (stereo in doubt), the Potency [1] was inconclusive: 14.1 µM [activator, partial curve, poor fit], the activity change, negative = inhibition [2] was inconclusive: -0.468% and the Potency [3] was active: 2.24 µM. The Potency [4] was inconclusive: 14.1 µM [inhibitor, partial curve], the Potency [5] was “inactive” and the Potency [6] was “inactive”. The Potency [7] was inconclusive: 3.98 µM [inhibitor, partial curve], the Potency [8] was “inactive” and the Potency [9] was “inactive”. For the same compound, the Potency [10] was “inactive”.
For `Cc1ccc(S(=O)(=O)Nc2cc3c(cc2C(=O)Nc2nc(-c4ccccc4)cs2)OCO3)cc1`, the Potency [11] was “inactive” and the Potency [12] was inconclusive: 39.8 µM [inhibitor, partial curve].
With `Cn1ccnc1` the activity change, negative = inhibition [13] was inconclusive: -2.69% [phenotype inactive], the Potency [14] was “inactive” and the Potency [15] was “inactive”. The ratio change, both ways [1] was inactive: 5.56%, the Potency [16] was “inactive” and the Potency [8] was “inactive”. For the same compound, the Potency [17] was “inactive”.
For `CN(C)c1cnc2c(O)cccc2c1`, the Potency [11] was “inactive” and the Potency [12] was inconclusive: 44.7 µM [inhibitor, partial curve].
For `O=S(=O)(O)C1CCNCC1`, the activity change, negative = inhibition [18] was inconclusive: -64.9% [inhibitor] [at 38 µM], the Potency [19] was inconclusive: 2 µM [activator, partial curve] and the Potency [20] was inconclusive: 12.6 µM [activator, partial curve, poor fit]. For the same compound, the activation [21] was inactive: 1.41%, the activity change, negative = inhibition [13] was inconclusive: -12.8% [phenotype inactive] and the Potency [14] was inconclusive: 0.1 µM [inhibitor, partial curve, poor fit]. The Potency [1] was inconclusive: 20 µM [activator, single point], the Potency [4] was inconclusive: 7.94 µM [inhibitor, full curve, poor fit] and the Potency [7] was “inactive”.

From PubChem BioAssay (NCATS)
